Assay results: PubChem BioAssay AID1347120 (National Center for Advancing Translational Sciences (NCATS), 2019)
The campaign covered roughly 390,000 compounds. About 930 (0.24%) were called active. Inconclusive results, whose numbers are uncertain, are shown with a selection of clear calls. Calls come from the whole dose curve; as a rule, active = well fitted activation curve with a large enough effect; inconclusive = small, poorly fitted or top-dose-only effect; inactive = no such curve, though single readings can be large or run the other way. A potency beside an inconclusive call is a rough fit, not a confirmed value.

Assay: qHTS for Suppressors of FUS Proteinopathy: Primary screen using FUS-linked yeast assay; note: nearly all actives have a fitted effect of over 55% in size;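 for growth rescue (activation): plate controls were DMSO vehicle for no effect and reference control for full effect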
Conditions: S. cerevisiae FUS-expressing, OD600, 24 h; Potency: growth rescue; growth rescue (activation): at 76.6 µM (top of the series)
How it was run: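 Steps: raffinose overnight preculture; dilution to OD 0.005 in 2% galactose minimal medium; compound addition (concentration series); 24hr at 30C, 99% humidity; absorbance read at 600 nm.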
Potency is the fitted concentration of half-maximal effect; tags give direction and shape of the fitted curve.

Compound | Potency | growth rescue (activation)
Cc1ccc(N2C(=O)C3N=NN(CC(=O)N4N=C(c5cccc6ccccc56)CC4c4ccccc4)C3C2=O)cc1 (stereo not drawn) | active: 14.1 µM | 
Cn1c(Cn2nnc3ccccc32)nnc1SCC(=O)N1c2ccccc2CCc2ccccc21 | inconclusive: 11.2 µM [activator, partial curve] | 
O=C(Nc1ccc(NC(=O)c2ccc3c(c2)OCCO3)cc1)c1ccccc1 | inconclusive: 28.2 µM [activator, partial curve, poor fit] | 
COc1ccccc1CNC(=O)C[C@H]1CC[C@H]2[C@@H](COc3ccc(NC(=O)Nc4ccccc4)cc3C(=O)N2C)O1 | inconclusive: 28.2 µM [activator, single point] | 
COc1cc(OC)cc(-c2nc3nc(C)c(CCC(=O)Nc4ccc(Cl)cc4)c(C)n3n2)c1 |  | inactive: -7.72%
COc1ccccc1C(=O)NC(CCSC)C(=O)NNC(=O)c1ccc(F)cc1 (stereo not drawn) |  | inactive: 19%
CCOc1ccccc1Oc1cn[nH]c1-c1ccc(OCC(=O)NN)cc1O | inconclusive: 25.1 µM [activator, partial curve, poor fit] | 
COc1ccc(Cn2c(C(=O)O)c(CNCc3cccs3)c3ccc(C)cc32)cc1 | inconclusive: 14.1 µM [activator, partial curve] | 
COc1cc2oc(=O)cc(-c3ccc(-c4ccc(CO)cc4)cc3)c2c(OC)c1OC |  | inactive: -11.7%
CCCC[C@@H]1C=C(C(=O)O)[C@H](c2ccc(CC)cc2)N1S(=O)(=O)c1ccc(C)cc1 | inconclusive: 50.1 µM [activator, single point] | 
COc1ccc(Cn2nnnc2C(c2cc3ccc(OC)cc3[nH]c2=O)N2CCCCCC2)cc1 (stereo not drawn) | inconclusive: 39.8 µM [activator, partial curve, poor fit] | 
CCn1c(C)c(C)c2cc(C(=O)NCCc3cc(OC)c(OC)c(OC)c3)ccc21 | inconclusive: 35.5 µM [activator, single point] | 
Cc1cccc(C(=O)Nc2cccc(C(=O)OCc3cc(=O)n4c5c(sc4n3)CCCC5)c2)c1 | inconclusive: 7.94 µM [activator, partial curve, poor fit] | 
CC(C)(C)OC(=O)[C@H](Cc1ccccc1)NC(=O)c1nc[nH]c1C(=O)N1CCN(c2ccccc2)CC1 | inconclusive: 20 µM [activator, single point] | 
Cc1nc(N)nc(N/N=C/c2c(F)cccc2Cl)n1 | inconclusive: 39.8 µM [activator, partial curve, poor fit] | 
COC(=O)[C@]12C[C@H](CC(=O)N3CCC(c4ccccc4)CC3)C(=O)N(Cc3ccco3)C1=C[C@H](C(C)(C)C)O[C@@H]2C | inconclusive: 14.1 µM [activator, partial curve] | 
COc1ccc(N2CCN(C(=O)C3CCN(S(=O)(=O)c4cnc[nH]4)CC3)CC2)cc1 |  | inactive: -5.92%
O=C(NC1CCCC1)C(C1CC1)n1c(-c2ccccn2)nc2ccccc21 (stereo not drawn) |  | inactive: 6.54%
COC(=O)C1=CN(c2ccc(Oc3ccccc3)cc2)C(N)=C(C#N)C1c1cccc(F)c1 (stereo not drawn) | inconclusive: 12.6 µM [activator, partial curve] | 
O=C(NCCc1c[nH]c2ccccc12)OCc1cn(Cc2cccc(C(F)(F)F)c2)nn1 |  | inactive: 30.2%
O=C(Nc1ccc2c(c1)OCCO2)C(c1cc2ccccc2o1)N1CCN(c2ccc(F)cc2)CC1 (stereo not drawn) | inconclusive: 3.55 µM [activator, full curve, poor fit] | 

Compound | Potency | growth rescue (activation)
CCOC(=O)CCCNC(=O)OCCCN1CCC2(CCC(c3ccccc3)CC2)C1=O (stereo not drawn) |  | inactive: 26%
CCCCCCCCN1C(=O)[C@@H](CC(=O)N2CCC(c3ccccc3)CC2)C[C@@]2(C(=O)OC)C1=C[C@H](C(C)C)O[C@@H]2C1CC1 | inconclusive: 3.98 µM [activator, full curve] | 
C=CC[C@H](CC(=O)N(CCO)Cc1ccccc1)C(=O)N[C@H](C)COC(=O)[C@@H](CC=C)CC(=O)OC(C)(C)C | inconclusive: 10 µM [activator, partial curve] | 
CCOc1ccc(CNS(=O)(=O)c2cccs2)cc1OCC |  | inactive: -9.6%
CC(C)Oc1ccc(-c2cc(=O)[nH]c(=O)[nH]2)cc1 | inconclusive: 7.94 µM [activator, single point] | 
Cc1ccnc(NC(=O)c2ccccc2NC(=O)c2ccccc2)c1 |  | inactive: -3.51%
COc1cc(C)cc2oc(=O)c(CC(=O)N3CCN(C(=O)C4COc5ccccc5O4)CC3)c(C)c12 (stereo not drawn) |  | inactive: 58.1%
CCOc1ccc(N(CC(=O)N2CCN(c3ccccc3OC)CC2)S(=O)(=O)c2ccc(F)cc2)cc1 | inconclusive: 25.1 µM [activator, single point] | 
N#Cc1cc(C#N)c(SCC(=O)N2CC(=O)Nc3ccccc32)nc1N | inconclusive: 17.8 µM [activator, single point] | 
CCN(CC)S(=O)(=O)c1ccc(N2CCCCC2)c(NC(=O)C2CSC3(C)CCC(=O)N23)c1 (stereo not drawn) | inconclusive: 17.8 µM [activator, partial curve] | 
COc1ccc(OC2CCN(S(=O)(=O)c3ccc(OC)cc3)CC2)cc1 | inconclusive: 20 µM [activator, partial curve, poor fit] | 
CC(C)c1ccc(NC(=O)c2cccc(NC3=NC4CS(=O)(=O)CC4S3)c2)cc1 (stereo not drawn) | inconclusive: 22.4 µM [activator, partial curve, poor fit] | 
COc1cc(NC(=O)CN(C)S(=O)(=O)c2ccc3[nH]c4c(c3c2)CCCC4)cc(OC)c1OC |  | inactive: 1.8%
C#CCn1cc(/C=N/Nc2nc3ccccc3[nH]2)c2ccccc21 | inconclusive: 22.4 µM [activator, partial curve, poor fit] | 
CCN(C(=O)c1cc2c(Cl)nc3ccccc3c2s1)c1cccc(Cl)c1 |  | inactive: -14.2%
CCOC(=O)[C@H]1[C@H]2COc3ccc(C)cc3[C@@H]2N2C(=O)CN(Cc3ccc(F)cc3)C(=O)[C@@]12C | inconclusive: 28.2 µM [activator, single point] | 
CC(=O)Oc1ccc2c(c1)CCC1C2CCC2(C)C(OC(C)=O)CCC12 (stereo not drawn) | inconclusive: 28.2 µM [activator, partial curve] | 
COc1cccc(C(C)=NNc2ccc([N+](=O)[O-])cc2[N+](=O)[O-])c1OC | inconclusive: 15.8 µM [activator, partial curve, poor fit] | 
CC(=O)c1c(C)nc2ccccc2c1N |  | inactive: -7.55%
COC(=O)c1sc(N)c(C(=O)OC)c1COC(=O)CCNS(=O)(=O)c1ccc(C)cc1 | inconclusive: 8.91 µM [activator, partial curve] | 
CCCCCCn1c(=O)n2n(c1=O)[C@@H]1CN(S(=O)(=O)c3ccc(C)cc3)C[C@]1(O)[C@@H](OC(=O)NCc1ccco1)C2 | inconclusive: 28.2 µM [activator, single point] | 

Compound | Potency | growth rescue (activation)
Cc1ccc(C)c(N2CCN(C(=O)c3ccc(CS(=O)Cc4cccc(Cl)c4)o3)CC2)c1 (stereo not drawn) | inconclusive: 35.5 µM [activator, single point] | 
O=C(c1ccc(COc2ccccc2Br)cc1)N1CCCCCC1 | inconclusive: 39.8 µM [activator, single point] | 
Cc1ccc(C(=O)OCc2nnc(-c3ccccc3)o2)o1 |  | inactive: 0.274%
Cc1ccc(C)n1-c1nnc(N2CCC(C(=O)Nc3ccccc3Br)CC2)s1 |  | inactive: 14.9%
Cc1cccc(/C=N/Nc2nncc3ccccc23)c1 |  | inactive: 34.1%
O=C(C1CCN(c2nc(-c3ccc(Br)cc3)cs2)CC1)N1CCNCC1 | inconclusive: 31.6 µM [activator, single point] | 
CN(C[C@H](Cc1ccccc1)N(C[C@H](Cc1ccccc1)N(CCC(C)(C)C)N=O)N=O)N=O | inconclusive: 31.6 µM [activator, partial curve] | 
CCn1c(SCC(=O)Nc2ccc(C)cc2Br)nnc1-c1nonc1NC(C)=O |  | inactive: 19.2%
CC1CCC2(CCC(=O)N2CCCO)CC1 (stereo not drawn) |  | inactive: -20.7%
COc1ccc2c(c1)Cc1sc(NC(=O)c3ccccc3Br)nc1-2 | active: 28.2 µM | 
COC(=O)[C@]12C[C@H](CC(=O)NCCCCc3ccccc3)C(=O)N(Cc3ccco3)C1=C[C@H](C(C)(C)C)O[C@@H]2C | inconclusive: 17.8 µM [activator, partial curve, poor fit] | 
O=C(Cn1cncn1)c1ccc(Cl)cc1 | inconclusive: 7.94 µM [activator, single point] | 
N#CC(c1ccc(F)cc1)c1ccc(C(=O)c2ccccc2)cc1 (stereo not drawn) | inconclusive: 11.2 µM [activator, single point] | 
O=C(CC1N=C2c3ccccc3N=C(SCC(=O)Nc3cccc(Cl)c3)N2C1=O)NCc1cccs1 (stereo not drawn) | inconclusive: 50.1 µM [activator, single point] | 
CC(=O)Nc1ccc(C(=O)N/N=C/c2ccccc2OC(=O)c2ccc(Cl)cc2)cc1 | inconclusive: 50.1 µM [activator, single point] | 
COc1ccc(C(=O)N[C@H](C(=O)Nc2nc3c(s2)CCCC3)C(C)C)cc1 |  | inactive: 28.9%
CCc1ccc(S(=O)(=O)NCC2(N3CCOCC3)CCCCC2)cc1 | inconclusive: 31.6 µM [activator, single point] | 
O=C(Nc1nc2c(Br)cccc2s1)c1ccc2c(c1)OCCO2 |  | inactive: -2.32%
Cc1cc2ccccc2n1CCNC(=O)C(C)Oc1ccccc1 (stereo not drawn) | inconclusive: 35.5 µM [activator, single point] | 
CCOC(=O)c1ccc(N2Cc3ccccc3C2)cc1O | inconclusive: 14.1 µM [activator, partial curve, poor fit] | 
O=C(Nc1ccc(Cc2ccncc2)cc1)C1CCC(N2C(=O)C3C4C=CC(C4)C3C2=O)CC1 (stereo not drawn) | inconclusive: 4.47 µM [activator, full curve] | 
